Results from PMC12136788.
The other results are listed elsewhere or left out.

T1: UNK ZnF1-3 (human, UniProt Q9C0B0 31-174)
T1 sequence: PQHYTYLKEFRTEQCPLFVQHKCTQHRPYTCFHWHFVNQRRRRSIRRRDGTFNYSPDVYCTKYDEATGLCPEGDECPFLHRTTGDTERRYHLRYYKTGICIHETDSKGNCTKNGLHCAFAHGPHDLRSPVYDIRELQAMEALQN

B1: chr12:3264740:3264741:-_ENSMUSG00000020671_ENSMUST00000021001|mus_mus|motif|central (ssRNA)
RNA: GGGAGUUCUACAGUCCGACGAUCCCAUAUCUGUAGCUUGAUCUUCUUUCCUUGUAGUUCCACUGUUUUGAUCUUAAAGUCGGUUCCGGUGGUGGAAAUAAAGGUGGUAUUGAAGGCAUCGUCCGAAAAACGAAAAAGGACGCACAACAGAGGAUUGAGCAUCA
B2: chr12:103221452:103221453:+_ENSMUSG00000041781_ENSMUST00000047357|mus_mus|FALSE|FALSE (ssRNA)
RNA: GGGAGUUCUACAGUCCGACGAUCAUACACAGGAAUUGUUGCAUAGAUGGCACAGUUUAGACCCAGCUUCCCCACGGCGAAUGGGAGGGCACCGAGGUGGAGUGGAUCAGGAUGAGACAGGAGCACUGCAUCGAUCUGGUGAACCAACAGAGGAUUGAGCAUCA
B3: chr5:144470944:144470945:+_ENSMUSG00000018001_ENSMUST00000116456|mus_hu|motif|central (ssRNA)
RNA: GGGAGUUCUACAGUCCGACGAUCAUCAUUGAAUAACAGACACUCCAGAAAUCAACAGAUGUACAUUAUUUACAUAUUACGGUAUUUACCGCAAAUAGAAAUAUUUUCUAAGAAAAAAAGUCAAUUUGUGGUUUCUGGUCUACCCAACAGAGGAUUGAGCAUCA
B4: chr8:104439394:104439395:+_ENSG00000164934_ENST00000297579|hu_hu|FALSE|FALSE (ssRNA)
RNA: GGGAGUUCUACAGUCCGACGAUCACUGUCAAAUCCCCAGGUCAUUGAACAUAUAGGAUUAGUUCUUUGUUCAUCCCAAAUGUCUACUUGCUGUCCACAUGUGGCAAAAACAGCUUCUUUCCAGUGAUGAUCAAUCCCAGUAUACAACAGAGGAUUGAGCAUCA
B5: 204309604_204309724_2002_3pUTR_ENSG00000173166_ENST00000319170|human|control|control (ssRNA)
RNA: GGGAGUUCUACAGUCCGACGAUCCCAACUGAGUGCCUCGUUUCCAGGCUUCAGAGAAUACGGAGCUCACAAUGCUCUGGGAACGGACGUGUCCUGCUGGCUGGGUGUCAGAAACUCCGCUAUCAGACUGAUUGGAGUGGUUUGCAACAGAGGAUUGAGCAUCA
B6: 89122016_89122915_1152_CDS_ENSMUSG00000069539_ENSMUST00000174252|mouse|control|control (ssRNA)
RNA: GGGAGUUCUACAGUCCGACGAUCUGGAGUUACAUUUAACAACAGUUUUACGUGUUCACGAACUUCCUCGGGUAUACUGGUCAGUGAACUAGAUCCUAAACGACUCAACUGAUCCAGUUGUCUACUGAAGCUCUUGUAAAUGUCCAACAGAGGAUUGAGCAUCA
B7: chr7:6442117:6442118:+_ENSG00000136238_ENST00000348035|hu_mus|FALSE|FALSE (ssRNA)
RNA: GGGAGUUCUACAGUCCGACGAUCACAAAAACUUGGCAUCAAAUGCGAAGGCUCGCUGAUUUUUGAGCAAAGCGUACAAAGGUUCCAGGCAGGACCGAGAACGAGGGGCUCCGACAUUUACAACAGCAGGCAUUUUCUCUUCCUCAACAGAGGAUUGAGCAUCA
B8: 49027197_49030409_1962_CDS_ENSG00000139687_ENST00000267163|human|control|control (ssRNA)
RNA: GGGAGUUCUACAGUCCGACGAUCUGCAUUUGCAGUAGAAUUUACACGCGUAGUUGAACCUUUUUUCUUUGGAGAUCUUACAGGAGAAAGAUACAUAUCUGCUGCAGUGUGAUUAUUCUGGAGAGGAAGAUUAAGAGGACAAGCCAACAGAGGAUUGAGCAUCA
B9: chr14:52433459:52433460:+_ENSG00000186469_ENST00000556752|hu_hu|FALSE|FALSE (ssRNA)
RNA: GGGAGUUCUACAGUCCGACGAUCAAUGGUUCUCCUCGCUCUCUUCAAAUGCCGUGGACUAGAAAGGUGCCCACUUCACUAAAAACUCUACAUCAAUGUCCCAGGAGCCCGGAGGCUCUUCAGGCCCCUCUCAAAGACUUAAAGCAACAGAGGAUUGAGCAUCA
B10: chr1:109605286:109605287:-_ENSG00000197780_ENST00000461096|hu_mus|hu_hu_hu_mus_True|8_78 (ssRNA)
RNA: GGGAGUUCUACAGUCCGACGAUCAAGUUUCAGAGUAACAUUCAGUAACCUCUUUAACAAUUGUAAUCCUUAUUAUAAGCUAAGCAGAAUAAUAAUUUAAUACCGUAAGUGAACUACACACAAAGCCGUGUAUUCAGAAAUGGUCAACAGAGGAUUGAGCAUCA
B11: chr7:56126341:56126342:+_ENSG00000146731_ENST00000540286|hu_mus|hu_hu_hu_mus_True|1_88 (ssRNA)
RNA: GGGAGUUCUACAGUCCGACGAUCCAUGUUUCUCCUCUUGGCUCUGCGCAGAGCAACGAUCCCUUCUUUCGCAAGGGCAUCUAAGGAAAAGGGGUCAAUCCCCUUUUGAUUAAUAACGACAAAUCCUUUAUCUGAGUCGCCACACAACAGAGGAUUGAGCAUCA
B12: 55052064_55059170_449_3pUTR_ENSG00000022277_ENST00000023939|human|control|control (ssRNA)
RNA: GGGAGUUCUACAGUCCGACGAUCGAACCUGUGUCGGCCGUUCAUCUCCAGGCCCACAACGGGGCAGAUGAAACGCGCCCGCUGGAGGUCAUCGUGCUUGUCACCUUUAGUGUUUCCUUUAUCCCCUUCCCAGGCAGGAUUAUCCAACAGAGGAUUGAGCAUCA
B13: chr10:1038518:1038519:+_ENSG00000107937_ENST00000545048|hu_hu|motif|central (ssRNA)
RNA: GGGAGUUCUACAGUCCGACGAUCAAGUCUAUCAUGGUAAUUCUGUUGAGUAAAUUUGACUUUUCUCAUGUAAAAAUGUCGGAUGCGAUGUAUUUGGUAAUGUUUAUGAAUAACGGUUGGAGUCUUUCGUUGAGUCUUCGACAACAACAGAGGAUUGAGCAUCA
B14: 122513083_122513203_418_5pUTR_ENSMUSG00000034602_ENSMUST00000073792|mouse|control|control (ssRNA)
RNA: GGGAGUUCUACAGUCCGACGAUCCGGCCCGCAGCCAGCCGGCGGCUCCUCAGUCUUCCUUAGCCGGGGCCCAGGGCUCGGCGGGCGGGCGGGCGGGCGGGCGCACGGCCGGAGCCGGGCUGCGUCUCCCGAGGCGUGCCCGAGCAACAGAGGAUUGAGCAUCA
B15: chr18:52893488:52893489:-_ENSG00000196628_ENST00000354452|hu_mus|motif|central (ssRNA)
RNA: GGGAGUUCUACAGUCCGACGAUCUAUUUAGACCAUUUCCGCGGAGUUAUGGCAUUUACUCAGUGCUGAUAGGUGGAAAAACGGCUUCAACAGGGAUUUUUUUUUUCCUUAAUACAUGCCAAGAUUGUGUGGCUGUCAAAACAGCAACAGAGGAUUGAGCAUCA
B16: 112528614_112530920_387_CDS_ENSG00000111300_ENST00000261745|human|control|control (ssRNA)
RNA: GGGAGUUCUACAGUCCGACGAUCAGUAAAGGCUUCCUCUUGCUUUCCAGUUCUCUGUAAACCAAUUGCCUUUAAAACCUUAGCACAAUGAAGAUCCUUAUGUUUCUUCAACAGUUUAUCUGCUUGCUGAAUUGCCAUUUUAUUCAACAGAGGAUUGAGCAUCA
B17: 98581856_98581976_8367_CDS_ENSG00000196367_ENST00000456197|human|control|control (ssRNA)
RNA: GGGAGUUCUACAGUCCGACGAUCUGCACUCGUUUUUGCCCAUGACGCCUGCCAGCUGGAGGUAGCAUUUAACUUGCUGUCGAAUCUUCUGGAAGCAAUCCACGAUAGGAACAGUUGGAAUAGUAUGAAUCCGACUUAAUAUAUCAACAGAGGAUUGAGCAUCA
B18: chr12:60073987:60073988:-_ENSMUSG00000020986_ENSMUST00000021375|perfect_dup|FALSE|FALSE (ssRNA)
RNA: GGGAGUUCUACAGUCCGACGAUCCUGGGUCAGAUCUUGACGCAUAAAAUGGUGACGAUAAUAUGAACUCUCAUCAGGACUAUUGUUAAAAACUUGCAGGAAAGAAGAUCUUCUUAAAUGAAACAUAAACUGUGGAUAAAGGGACAACAGAGGAUUGAGCAUCA
B19: chr2:217001844:217001845:+_ENSG00000079246_ENST00000392132|hu_hu|hu_hu_hu_mus_False|1_28 (ssRNA)
RNA: GGGAGUUCUACAGUCCGACGAUCACCAACUUGAGGAUUAGAUCUUUUGUCAUAAGCAUAUCGGACGAUGGCGACCAUGUUUAACUCAUCCAAAGCAUGAACGAGAGAGGAAAGUGCAACAGCUGCCGCCUCAUCAUCUCUUGCCAACAGAGGAUUGAGCAUCA
B20: chr1:163112212:163112213:-_ENSG00000143248_ENST00000313961|hu_hu|hu_hu_hu_mus_False|68_98 (ssRNA)
RNA: GGGAGUUCUACAGUCCGACGAUCUUUUAUUAUCAGUAAGCAUGAGUUACAUACUAGGCAAAGUAUUGAAUACAAAAAUCAGGAAACAAACACUAUUGGUCCAGAAUUUAAAACUUUAUGAGCGAAGUGCUGGCACAGGACUUACAACAGAGGAUUGAGCAUCA
B21: chr7:135612270:135612271:-_ENSG00000105887_ENST00000393085|hu_mus|hu_hu_hu_mus_False|1_18 (ssRNA)
RNA: GGGAGUUCUACAGUCCGACGAUCGUUUUUUUCUGAGAUGUUAAAUAGUACUUCAGUGGAAAACAAAACUUAACCUUUUAUUAAUGCGUGUUGUACCAAAAGCAGACAUUUUAGCUUGCUUCCUUUAAAAAUAUUAAGAACAUUCAACAGAGGAUUGAGCAUCA
B22: chr15:98781125:98781126:-_ENSMUSG00000072235_ENSMUST00000097014|mus_hu|motif|central (ssRNA)
RNA: GGGAGUUCUACAGUCCGACGAUCAACAUUCAGGGCUCCAUCAAAUCUCAGGGAAGCAGUGAUGGAGGACACAAUUUGACCGGUUAACCUAUUCAGGUUAGUAUAGGUUGGACGCUCAAUAUCGAGGUUUCUACGACAGAUGUCCAACAGAGGAUUGAGCAUCA

What follows are binders tested against T1, UNK ZnF1-3 (assay: nsRBNS (natural sequence RNA bind-n-seq); RBNS binding buffer (assumed for nsRBNS): 25 mM Tris pH 7.5, 150 mM KCl, 3 mM MgCl2, 0.01% Triton X-100, 500 ug/ml BSA, 20 U/ml SUPERase-In, 4 C; UNK is unkempt and MSI1 is Musashi-1; names of the RNAs are library labels; protein concentration not given here; high values mean tight binding).

Binder | binding signal [enrichment R]
B1 | 1.13
B2 | 1.23
B3 | 1.11
B4 | 0.804
B5 | 1.12
B6 | 0.378
B7 | 1.37
B8 | 1.78
B9 | 1.14
B10 | 0.639
B11 | 1.07
B12 | 1.01
B13 | 0.973
B14 | 0
B15 | 1.14
B16 | 0.634
B17 | 0.944
B18 | 1.41
B19 | 1.54
B20 | 1.56
B21 | 0.63
B22 | 0.693
